Whole data set: some 81,000 sequences, median “one-hybrid fitness for binding NBS DNA” near -0.1, cut for the highest 2% near 0.36. The list shows a part of the results.
B1: Caulobacter ParB omega fusion; a variant is named by its letters at X, in order, B8GW30 (parent)
chain: MESVVVGEPGMSEGRRGLGRGLSALLGEVDAAPAQAPGEQLGGSREAPIEILQRNPDQPRRTFREEDLEDLSNSIREKGVLQPILVRPSPDTAGEYQIVAGERAWRAAQRAGLKTVPIMVRELDDLAVLEIGIIENVQRADLNVLEEALSYKVLMEKFERTQENIAQTIGKSXSHVANXMRLLXLPDEVQSYLVSGELTAXHARAIAAAADPVALAKQIIEGGLSVRETEALARKAPNLSAGKSKGGRPPRVKDTDTQALESDLSSVLGLDVSIDHRGSTGTLTITYATLEQLDDLCNRLTRGI

Variants of: B1
Assay: one-hybrid fitness for binding NBS DNA (the Noc-binding site; scaled: cognate 1, non-cognate 0); higher = stronger binding
Conditions: with NBS DNA site
How it was run: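 Fitness here means the log change in variant-to-wild-type read ratio between plasmids sequenced before and after selection. That scale was set so cognate equals 1 and non-cognate equals 0. The selection was a bacterial one-hybrid screen of Caulobacter ParB libraries, four specificity codons randomised, in E. coli USO carrying a HIS3 reporter with the site 19 bp from the promoter, grown 48 hours at 37°C on M9-minus-histidine with 0.1 mM IPTG and 5 mM 3-AT.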

Variant | one-hybrid fitness for binding NBS DNA
RSIH | ≤ 0.2
AHSG | ≤ 0.2
QWQT | ≤ 0.2
AKQA | ≤ 0.2
SAVI | ≤ 0.2
RFTN | ≤ 0.2
ASEY | ≤ 0.2
ACKN | ≤ 0.2
AHNG | ≤ 0.2
VPAI | ≤ 0.2
QNCR | ≤ 0.2
RFVM | ≤ 0.2
TVVA | ≤ 0.2
IHSR | ≤ 0.2
ACCF | ≤ 0.2
VWNG | ≤ 0.2
LIRN | ≤ 0.2
HLKG | ≤ 0.2
GWTD | ≤ 0.2
PSAN | ≤ 0.2
MVPR | ≤ 0.2
FPNM | ≤ 0.2
QVID | ≤ 0.2
PAPE | ≤ 0.2

Variant | one-hybrid fitness for binding NBS DNA
DGYW | ≤ 0.2
TTPG | ≤ 0.2
RPHR | ≤ 0.2
RYDF | ≤ 0.2
CGAV | ≤ 0.2
GCTR | ≤ 0.2
PQAW | ≤ 0.2
CSKT | ≤ 0.2
NQNS | ≤ 0.2
DVDW | ≤ 0.2
RDLQ | ≤ 0.2
HAYA | ≤ 0.2
LDST | ≤ 0.2
RSWI | ≤ 0.2
LPWM | ≤ 0.2
GRPK | ≤ 0.2
RHIW | ≤ 0.2
CNRG | ≤ 0.2
ARAI | ≤ 0.2
PSVN | ≤ 0.2
PQAR | ≤ 0.2
RQQC | ≤ 0.2
RGKS | 0.348
DSPG | ≤ 0.2

Variant | one-hybrid fitness for binding NBS DNA
LWRS | ≤ 0.2
LAWM | ≤ 0.2
KLCD | ≤ 0.2
QLWC | ≤ 0.2
PRRG | ≤ 0.2
SQTL | ≤ 0.2
TFHR | ≤ 0.2
CVLC | ≤ 0.2
QLGL | ≤ 0.2
MCCG | ≤ 0.2
RRYD | ≤ 0.2
VRKM | ≤ 0.2
QHPL | ≤ 0.2
GWDT | ≤ 0.2
TQPF | ≤ 0.2
IPSR | ≤ 0.2
WLEC | ≤ 0.2
RWKP | ≤ 0.2
RAIM | ≤ 0.2
ALRI | ≤ 0.2
NARE | ≤ 0.2
IISR | ≤ 0.2
ESKM | ≤ 0.2
LPGA | ≤ 0.2

Variant | one-hybrid fitness for binding NBS DNA
GIDG | ≤ 0.2
LKAR | ≤ 0.2
MHER | ≤ 0.2
HISF | ≤ 0.2
VKTW | ≤ 0.2
QIRK | 0.212
PTNQ | ≤ 0.2
KKTC | ≤ 0.2
LNMT | ≤ 0.2
ECIE | ≤ 0.2
KVPY | ≤ 0.2
LISG | ≤ 0.2
LQQM | ≤ 0.2
FPGY | ≤ 0.2
PRTC | ≤ 0.2
RLVQ | ≤ 0.2
DQLN | ≤ 0.2
KLHC | ≤ 0.2
SSYK | ≤ 0.2
CTVI | ≤ 0.2
VQES | ≤ 0.2
FHHR | ≤ 0.2
PQYY | ≤ 0.2
ATRA | ≤ 0.2

Variant | one-hybrid fitness for binding NBS DNA
KPAC | ≤ 0.2
NNIE | ≤ 0.2
SQTN | ≤ 0.2
RAPG | ≤ 0.2
ILYR | ≤ 0.2
KQSY | ≤ 0.2
ARAW | ≤ 0.2
DHWV | ≤ 0.2
VLGI | ≤ 0.2
KVYS | ≤ 0.2
MSCR | ≤ 0.2
TCKK | ≤ 0.2
FQQR | ≤ 0.2
QFTT | ≤ 0.2
WCAS | ≤ 0.2
QLLT | 0.33
LHNA | ≤ 0.2
LIME | ≤ 0.2
ARCT | ≤ 0.2
HNKT | ≤ 0.2
HLVC | ≤ 0.2
NWQG | ≤ 0.2
RLCD | ≤ 0.2
WKKS | ≤ 0.2

Variant | one-hybrid fitness for binding NBS DNA
DKKD | ≤ 0.2
NMGM | ≤ 0.2
NAAN | ≤ 0.2
ATKH | ≤ 0.2
SSQV | ≤ 0.2
QYEW | ≤ 0.2
PRVY | ≤ 0.2
QINP | ≤ 0.2
FSIR | ≤ 0.2
SATD | ≤ 0.2
MNNT | ≤ 0.2
GAAL | ≤ 0.2
RFLK | ≤ 0.2
TNIR | ≤ 0.2
YRWG | ≤ 0.2
LKWS | ≤ 0.2
RVRV | ≤ 0.2
TRQE | ≤ 0.2
QAQY | ≤ 0.2
VFAY | ≤ 0.2
QQEL | ≤ 0.2
PDMG | ≤ 0.2
HKAY | ≤ 0.2
RPIR | ≤ 0.2

Variant | one-hybrid fitness for binding NBS DNA
PCLT | ≤ 0.2
VNTS | ≤ 0.2
WKDC | ≤ 0.2
RIIV | ≤ 0.2
IIVG | ≤ 0.2
IPIE | ≤ 0.2
HPVW | ≤ 0.2
KDTM | ≤ 0.2
AQDG | ≤ 0.2
PYLL | ≤ 0.2
PPID | ≤ 0.2
GFQG | ≤ 0.2
TQAR | ≤ 0.2
RPKH | ≤ 0.2
YRWT | ≤ 0.2
KDLA | ≤ 0.2
ECCC | ≤ 0.2
WKKC | ≤ 0.2
MVPN | ≤ 0.2
FSPF | ≤ 0.2
RTTD | ≤ 0.2
SDLA | ≤ 0.2
APQC | ≤ 0.2
AMSR | ≤ 0.2

Variant | one-hybrid fitness for binding NBS DNA
MFWR | ≤ 0.2
YPYG | ≤ 0.2
MSYL | ≤ 0.2
ILQL | ≤ 0.2
PRHR | ≤ 0.2
RVKY | 0.293
RKDG | ≤ 0.2
QHES | ≤ 0.2
HACH | ≤ 0.2
RNQI | ≤ 0.2
RTEM | ≤ 0.2
KGNQ | ≤ 0.2
IIFS | ≤ 0.2
FWNV | ≤ 0.2
AAPM | ≤ 0.2
ERDC | ≤ 0.2
CPAS | ≤ 0.2
QIHA | 0.201
DAVF | ≤ 0.2
SIFR | ≤ 0.2
WKMS | ≤ 0.2
QSCV | ≤ 0.2
AYNK | ≤ 0.2
AARE | ≤ 0.2

Variant | one-hybrid fitness for binding NBS DNA
FTSS | ≤ 0.2
PYVN | ≤ 0.2
CQDS | ≤ 0.2
QPPL | ≤ 0.2
TPKA | ≤ 0.2
QQCL | ≤ 0.2
VPIG | ≤ 0.2
YSDY | ≤ 0.2
GDRI | ≤ 0.2
YHHV | ≤ 0.2
LWRV | ≤ 0.2
MALL | ≤ 0.2
FGHV | ≤ 0.2
GDIR | ≤ 0.2
PLTG | ≤ 0.2
ENPR | ≤ 0.2
KVFK | ≤ 0.2
VNLW | ≤ 0.2
QRDN | ≤ 0.2
WMNR | ≤ 0.2
EWTC | ≤ 0.2
AKMG | ≤ 0.2
GHPW | ≤ 0.2
YMRE | ≤ 0.2

Variant | one-hybrid fitness for binding NBS DNA
YTSE | ≤ 0.2
NYGF | ≤ 0.2
LGND | ≤ 0.2
WTGC | ≤ 0.2
SPFF | ≤ 0.2
PHEI | ≤ 0.2
LGIY | ≤ 0.2
GYLL | ≤ 0.2
THDV | ≤ 0.2
HMMD | ≤ 0.2
CSLS | ≤ 0.2
RFKG | ≤ 0.2
CWIY | ≤ 0.2
KLWR | ≤ 0.2
QAMT | 0.346
RKPG | ≤ 0.2
MMHF | ≤ 0.2
LDHS | ≤ 0.2
QQCI | ≤ 0.2
QSLQ | ≤ 0.2
QYID | ≤ 0.2
DTVD | ≤ 0.2
LDYM | ≤ 0.2
GHRT | ≤ 0.2

Variant | one-hybrid fitness for binding NBS DNA
LLTM | ≤ 0.2
RQDY | ≤ 0.2
HWRR | ≤ 0.2
SGGT | ≤ 0.2
GPER | ≤ 0.2
GGKR | ≤ 0.2
EFTE | ≤ 0.2
VDSC | ≤ 0.2
LQRY | ≤ 0.2
PTAQ | ≤ 0.2
KSPP | ≤ 0.2
AYVV | ≤ 0.2
TCDY | ≤ 0.2
QTCP | ≤ 0.2
VYTR | ≤ 0.2
KHNY | ≤ 0.2
RRHL | ≤ 0.2
SKYF | ≤ 0.2
DDML | ≤ 0.2
GCNM | ≤ 0.2
VGGT | ≤ 0.2
IAKM | ≤ 0.2
YRGN | ≤ 0.2
TGLC | ≤ 0.2

Variant | one-hybrid fitness for binding NBS DNA
LTPD | ≤ 0.2
HLPY | ≤ 0.2
DYHT | ≤ 0.2
HAYM | ≤ 0.2
ASLM | ≤ 0.2
CFND | ≤ 0.2
PTSP | ≤ 0.2
QMVC | ≤ 0.2
YDRW | ≤ 0.2
AEPG | ≤ 0.2
QDMT | ≤ 0.2
YKCT | ≤ 0.2
QFRR | 0.441
STHT | ≤ 0.2
NEQT | ≤ 0.2
IRLL | ≤ 0.2
KQNR | 0.242
AKHL | ≤ 0.2
QGWG | ≤ 0.2
SERY | ≤ 0.2
HATK | ≤ 0.2
KKQA | ≤ 0.2
KTPW | ≤ 0.2
PRTA | ≤ 0.2

Variant | one-hybrid fitness for binding NBS DNA
WSFG | ≤ 0.2
NVPC | ≤ 0.2
TNMR | ≤ 0.2
YGRH | ≤ 0.2
THLP | ≤ 0.2
VYEP | ≤ 0.2
IPGI | ≤ 0.2
QTRC | 0.548
TFKR | ≤ 0.2
PGKI | ≤ 0.2
RVFT | 0.271
RYFV | ≤ 0.2
TWYM | ≤ 0.2
MPNK | ≤ 0.2
LDLD | ≤ 0.2
IMNW | ≤ 0.2
GDER | ≤ 0.2
SFQM | ≤ 0.2
